From PubChem BioAssay AID463173 (ICCB-Longwood Screening Facility, Harvard Medical School, 2010) come the findings set out here.

Among all 52,000 compounds or so, about 4,300 (8.3%) were called active. Rule as the data show it: active = survival mostly below about 52% (no sharp cut-off); inactive = mostly above about 56%. The list shows a part of the results.

For this test, the system named is DeltatarO mutant. In words: growth inhibition of S. aureus wild type versus tarO mutant, primary screen, teichoic acid synthesis inhibitors, RN4220, OD600 (AID 463173). Particulars: OD600, 18 h, stronger effect = lower value, screened at 18.75 µg/mL (by protocol).
For the molecule `Cc1ccc(C)c(CN2C(=O)c3ccccc3S(=O)c3ccc(C(=O)N4CCCCC4)cc32)c1` (configuration not stated), the survival is inactive: 83%. As for `O=C(CN1C(=O)COc2ccc(S(=O)(=O)N3CCCCCC3)cc21)N1CCN(c2ccc(Cl)cc2)CC1`, the figure is inactive: 85%. As for `COc1cc(NC(=O)Cc2noc3ccccc23)cc(OC)c1OC`, the figure is inactive: 57%; as for `O=c1[nH]c(C2CCCN(S(=O)(=O)c3ccccc3)C2)nc2c1nnn2Cc1ccccc1Br` (configuration not stated), inactive: 88%; as for `CCOC(=O)c1cccc(NC(=O)Nc2c(C)n(C)n(-c3ccccc3)c2=O)c1`, inactive: 94%. As for `Cc1cccc(-n2ncc3c(NNC(=O)c4ccccc4Cl)ncnc32)c1`, the figure is inactive: 64%. On to `COc1ccc(-c2ccc(=O)n(CC(=O)Nc3cc(OC)ccc3OC)n2)cc1`, for which the survival was inactive: 80%. In the case of `CCCc1oc(C(=O)O)cc1CN1CCOCC1` it was inactive: 76%; in that of `COc1ccc(CNC(=O)c2cc(-c3ccc(Br)s3)nc3ccccc23)cc1`, inactive: 77%; in that of `COc1ccc(C(=O)c2cn(Cc3ccccc3OC)c3cc4c(cc3c2=O)OCO4)cc1`, inactive: 95%. In the case of `CCN(CC)C(=O)c1sc2c(c1C)c(=O)n(-c1ccc(OC)cc1OC)c(=O)n2CC(=O)Nc1ccccc1` it was inactive: 73%. In the case of `Cc1cccc(N2CCN(c3nc4ccccc4c4nnc(C)n34)CC2)c1C`, the survival is inactive: 97%. In the case of `COc1ccc(CNC(=O)Cn2cccc2C(=O)c2ccccc2C)cc1` it was inactive: 78%; in that of `Cc1cc(C)cc(-n2ccnc2SCC(=O)Nc2ccccc2F)c1`, inactive: 71%; in that of `Cc1ccc(OCCn2c(C3CC(=O)N(Cc4ccc(F)cc4)C3)nc3ccccc32)c(C)c1` (configuration not stated), active: 3%. Consider `COc1ccccc1/C=C/C(=O)Nc1nc2n(n1)C(c1ccc(F)cc1)C=C(c1ccccc1)N2` (configuration not stated), for which the survival was inactive: 65%. As for `O=C(Nc1ccccn1)C(=NO)C(=O)Nc1ccccn1`, the figure is inactive: 98%; as for `O=S(=O)(NCC(c1ccccc1)N1CCc2ccccc21)c1ccc(Cl)cc1` (configuration not stated), inactive: 73%; as for `Cc1ccc(-n2nnnc2SCC(=O)NCCc2ccccc2)cc1C`, active: 42%. As for `COc1ccc(NC(=O)c2ccc(NC(=O)CCS(=O)(=O)c3cccs3)cc2)cc1Cl`, the figure is inactive: 63%. In the case of `CCOc1ccc(N(CC(=O)OC)S(=O)(=O)c2ccc3c(c2)n(C)c(=O)c(=O)n3C)cc1` it was active: 46%; in that of `CCC(C)NC(=O)Cn1c(=O)n(-c2ccc(Cl)cc2)c(=O)c2c3c(sc21)CCCC3` (configuration not stated), inactive: 79%.

On to `Cc1ccc(C)c(N2CCN(C(=O)c3c(C)oc4nc(C)nc(N5CCOCC5)c34)CC2)c1`, for which the survival is inactive: 115%. As for `Clc1cccc(-c2cc3nc4c(c(N5CCCCC5)n3n2)CCCC4)c1`, the figure is inactive: 99%; as for `CCCCC(=O)OC1=CN(Cc2ccccc2)S(=O)(=O)c2ccccc21`, inactive: 106%; as for `COc1ccc2c(c1)c(CC(=O)Nc1c(C)cccc1C)c(C)n2C(=O)c1ccc(Cl)cc1`, inactive: 78%. As for `CSc1ccc(CCNC(=O)c2ccc(-n3c(C)cc4c3CCC(C)C4)cc2)cc1` (configuration not stated), the figure is inactive: 129%; as for `COc1ccc(OCC(=O)NCc2ccc3c(c2)CCN3C(=O)c2cccc(C)c2)cc1`, inactive: 82%; as for `Cc1cc(C)cc(NC(=O)CCn2cnc3ccccc3c2=O)c1`, inactive: 77%. As to `CCOc1ccccc1NC(=O)Cn1c(=O)n(-c2ccc(C)cc2)c(=O)c2c1cnn2C`, the survival was inactive: 77%. As for `Cc1cc(C(=O)Nc2ccccc2C(=O)O)c(C)o1`, the figure is inactive: 66%; as for `CCc1cccc(NC(=O)CC(c2ccc(OC)cc2)N2Cc3ccccc3C2=O)c1` (configuration not stated), inactive: 69%.

Turning to `CC(C)c1ccc(C2NC(=O)c3c(sc4c3CCN(C)C4)N2)cc1` (configuration not stated), the survival is inactive: 60%. Turning to `O=C(NCc1cccc(Cl)c1)c1cnc(N2CCOCC2)c2ccccc12`, the survival is inactive: 89%. Regarding `O=C(O)CNc1ccc2nncn2n1`, the survival was inactive: 90%. In the case of `CCOc1ccc(NS(=O)(=O)c2c(C)nc3sc(CC)nn3c2=O)cc1` it was inactive: 77%. As for `COCCNC(=O)c1ccc2c(c1)ncn2-c1cc(C)ccc1OC`, the figure is inactive: 102%; as for `CCc1ccc(CNC(=O)Cn2nc(C)c3nn(-c4ccc(Cl)cc4)c(C)c3c2=O)cc1`, inactive: 93%. On to `CCN(CC)C(=O)CSc1nnc2c3ccccc3n(C)c2n1`, for which the survival was inactive: 89%.

In the case of `Cn1cccc1-c1cc2n(n1)CCC(=O)N2CCCC(=O)NCc1cccc(Cl)c1`, the survival was inactive: 85%. As for `CCCc1nnc(SCc2cc(=O)c3c(C)cc(C)cc3[nH]2)n1C`, the figure is inactive: 95%. As for `CCc1nnc(NC(=O)CSc2nccn2Cc2ccc(Cl)cc2)s1`, the figure is inactive: 83%.

Take `Cc1ccc(OCCCn2c(-c3ccc(Cl)cc3)nc3ccccc3c2=O)cc1C`: the survival is inactive: 58%. As for `O=C(NCC(c1ccc2c(c1)OCO2)N1CCN(c2ccccc2)CC1)c1ccc(F)c(F)c1` (configuration not stated), the figure is inactive: 69%.

For the molecule `O=C(Nc1ccc(F)cc1F)C1CCN(C(=O)c2cnn(-c3ccccc3)c2-n2cccc2)CC1`, the survival was inactive: 106%.

For the molecule `C=CCC(CC=C)(CNC(=O)C(=O)Nc1ccc(Br)cc1)c1ccc(OC)c(OC)c1`, the survival is inactive: 68%. As for `O=C1C=C(N2CCCCC2)C2(CCCCC2)O1`, the figure is inactive: 106%. On to `CCCc1cnc2c(c1SCc1ccc(C(F)(F)F)cc1)c(=O)n(C)c(=O)n2C`, for which the survival is inactive: 54%. In the case of `CC(C)Oc1ccc(CNC(=O)c2ccc(Cn3c(=O)c4cccn4c4cccnc43)cc2)cc1`, the survival was inactive: 55%. Regarding `Cc1ccc(NC(=O)CSc2ccc(-c3sc(-c4ccccc4)nc3C)nn2)cc1F`, the survival is active: 25%. In the case of `O=C(Cn1cc(/C=N/NC(=O)c2ccc(Oc3ccc(O)cc3)cc2)c2ccccc21)NCc1ccco1` it was inactive: 71%.

As for `COc1ccccc1N1CCN(C(=O)Cn2ncc3c(=O)oc4ccc(C)cc4c32)CC1`, the survival is inactive: 98%. In the case of `Cc1cccc(N2CCN(C(=O)CCSCc3ccccc3F)CC2)c1C` it was inactive: 102%. In the case of `CN(C)S(=O)(=O)c1ccc(C(=O)Nc2ccc(-n3nncc3-c3ccccc3)cc2)cc1` it was inactive: 105%. In the case of `COc1ccccc1NS(=O)(=O)c1cc2c(cc1Cl)NC(=O)CO2` it was inactive: 82%; in that of `c1ccc(C2CN3CCSC3=N2)cc1` (configuration not stated), inactive: 79%. With `O=C1CN(C(=O)Nc2ccccc2C(F)(F)F)C(c2ccccc2)c2c(sc3c2CCCC3)N1` (configuration not stated), the survival was inactive: 66%.
